Data on 73 molecules can be found in ChEMBL document CHEMBL1201862, “PubChem BioAssay data set” (2004).

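48-hour exposure; five concentrations; linearly interpolated endpoints. GI50 = concentration required for 50% inhibition of growth.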 Activity calls are given as the source filed them. Cut-off read from the data, not from the text of the source: active = GI50 up to about 1.1 µM and inactive = higher. Some results are limits rather than exact numbers.

For the experiment, the system named is NCI-H322M. The experiment in a line: growth of human tumour cells (NCI), 48 h.
On to `CNC(=O)OCc1nccc2c(C)c3[nH]c4ccc(OC)cc4c3cc12`, for which the GI50 was inactive: 2.97 µM.

For the molecule `Cc1cc([N+](=O)[O-])c(C)c(Br)c1C`, the GI50 was inactive: > 100 µM.

`COc1ccc(NC(=O)CC/C(CC(=O)c2ccco2)=N/Nc2ccc([N+](=O)[O-])cc2[N+](=O)[O-])cc1`: the GI50 is inactive: > 100 µM.

As to `COc1nc2c(nc(N)n2C2OC(CO)C(O)C(O)C2O)c(=O)n1C` (stereo not drawn), the GI50 was inactive: > 100 µM.

As for `O=c1cc(-c2ccccc2)nc(-n2[nH]c3c(c2=O)CCCC3)[nH]1`, the GI50 was inactive: 1.32 µM.

In the case of `CC1(O)CC2C(CC1SCCO)C2(C)C` (stereo not drawn), the GI50 was inactive: > 100 µM.

Regarding `CCOC(=O)C12CN(C34CC5CC(CC(C5)C3)C4)CC(C(=O)OCC)(C1=O)C(c1ccccc1)OC2c1ccccc1` (stereo not drawn), the GI50 was inactive: > 100 µM.

Turning to `COc1ccccc1NC(=O)O/N=C(/Cl)C(C)C`, the GI50 was inactive: 13.3 µM.

Regarding `O=C1N[C@@H]2CCC[C@@H]2[C@@H]1c1ccc(Cl)cc1`, the GI50 was inactive: > 100 µM.

Turning to `COc1cc(C2SCC(=O)N2c2ccc(Oc3ccc(Cl)cc3)c(Cl)c2)cc(OC)c1OC` (stereo not drawn), the GI50 was inactive: 17.5 µM.

For `COC1(OC)CC2C(=O)N(Cc3ccccc3)C1CC2S(=O)(=O)c1ccccc1` (stereo not drawn), the GI50 was inactive: > 100 µM.

Turning to `FC(F)(F)c1nc2cc(SSc3cc4nc(C(F)(F)F)[nH]c4cc3Cl)c(Cl)cc2[nH]1`, the GI50 was inactive: > 100 µM.

In the case of `Cc1cc(C)nc(NS(=O)(=O)c2ccc(NC(=O)c3cccc4c(Nc5ccc(S(=O)(=O)Nc6nc(C)cc(C)n6)cc5)c5ccc(Cl)cc5nc34)cc2)n1`, the GI50 is inactive: 50.8 µM.

As for `CO/C(N)=C(C#N)/N=C/c1cccs1`, the GI50 is inactive: 49.9 µM.

For `CC1OC(OC2C(O[C@@H]3C[C@@H]4CC[C@@H]5[C@H](CC[C@]6(C)[C@@H]7[C@H](C[C@@H]56)O[C@]5(CC[C@@H](C)CO5)[C@H]7C)[C@@]4(C)C[C@H]3O)OC(CO)C(OC3OC(CO)C(O)C(O)C3O)C2O)C(O)C(O)C1O` (stereo partly drawn), the GI50 was inactive: 2.37 µM.

As to `C[N+](C)(C)CC(=O)N/N=C\c1c(O)ccc2ccccc12`, the GI50 is inactive: 35.1 µM.

As for `O=c1oc2cc(/N=C/c3ccc4c(c3)OCO4)ccc2c2ccccc12`, the GI50 is inactive: 31.2 µM.

Take `C[C@@H]1[C@@H](C)C(c2ccccc2)O[Si]1(C(C)(C)C)C(C)(C)C` (stereo partly drawn): the GI50 is inactive: 16.4 µM.

As to `C=CCCCCCCC#CCCCCCCCCCC[C@@H]1C(=O)O[C@H](C)[C@@H]1O.CCCCCCCCC#CCCCCCCCCCC[C@@H]1C(=O)O[C@H](C)[C@@H]1O`, the GI50 is inactive: 40.7 µM.

Take `COc1cc([C@@H]2c3cc4c(cc3[C@@H](NC(=O)c3cccc(C#N)c3)C3COC(=O)[C@@H]32)OCO4)cc(OC)c1O` (stereo partly drawn): the GI50 is inactive: 8.02 µM.

Regarding `NC1=NC(=O)/C(=C/c2ccccc2[N+](=O)[O-])C(N)=N1`, the GI50 was inactive: > 100 µM.

Regarding `COC(=O)C1=NN2c3ccccc3C(=O)OCCC2C1` (stereo not drawn), the GI50 was inactive: > 100 µM.

For the molecule `COc1ccccc1NC(=O)CC(=O)n1nc(C)c(/N=N/c2ccccc2Cl)c1C`, the GI50 is inactive: > 100 µM.

As to `Cc1nc(N2N=C(c3ccc(Cl)cc3)CCC2=O)sc1[N+](=O)[O-]`, the GI50 was inactive: > 100 µM.

In the case of `CC1=NN(c2cccc(Cl)c2)C2(C1)C(Cl)C(=O)N2c1nc2ccccc2s1` (stereo not drawn), the GI50 is inactive: 42.6 µM.

Regarding `N=C(N)C1CN(CCc2c[nH]cn2)C(=O)NC1=O` (stereo not drawn), the GI50 was inactive: > 100 µM.

Regarding `O=C(/C=C1\Nc2ccc([N+](=O)[O-])cc2N=C1NC12CC3CC(CC(C3)C1)C2)c1ccccc1`, the GI50 was inactive: > 10 µM.

As to `O=[N+]([O-])c1ccc(C2CC(c3ccc(NCc4nc5ccccc5[nH]4)cc3)=NO2)cc1` (stereo not drawn), the GI50 was inactive: 76.6 µM.

As for `CN(C)CCCNC(=O)CNC(=O)c1cc(NC(=O)c2cc(NC(=O)c3cc(NC(=O)CCNC(=O)c4cc(NC(=O)c5cc(NC(=O)c6nccn6C)cn5C)cn4C)cn3C)cn2C)cn1C`, the GI50 is inactive: > 100 µM.

Consider `CC1C(O)Oc2cc3c(cc2C1c1ccccc1O)OCO3` (stereo not drawn), for which the GI50 is inactive: 29 µM.

Consider `CC[P+](C)(Cc1ccccc1)c1ccccc1` (stereo not drawn), for which the GI50 was inactive: > 100 µM.

Consider `COC(=O)c1c(C)cccc1CC1Cc2c(C)cccc2C1=O` (stereo not drawn), for which the GI50 is inactive: 33 µM.

On to `CCOC(=O)/C=C/C1=C(Br)[C@@]2(C)CC[C@@H]3c4ccc(O)cc4CC[C@H]3[C@@H]2C1`, for which the GI50 is inactive: 15.5 µM.

Regarding `CCOc1cc(/C=C2\N=C(c3ccccc3)N(c3nc4ccccc4s3)C2=O)ccc1O`, the GI50 was inactive: 70.6 µM.

As for `Oc1ccc(-c2c3c(nc4c2CCc2ccc(Br)cc2-4)-c2cc(Br)ccc2CC3)cc1`, the GI50 is inactive: 17.5 µM.

As for `COc1cccc(C(=O)O[C@H]2[C@@H]3[C@]4(OC(C)=O)CO[C@@H]4C[C@H](O)[C@@]3(C)C(=O)[C@H](OC(C)=O)C3=C(C)[C@@H](OC(=O)[C@H](O)[C@@H](NC(=O)OC(C)(C)C)c4ccco4)C[C@]2(O)C3(C)C)c1`, the GI50 was active: < 0.00375 µM.

On to `CC(C)CNC(=O)Cn1c(-c2ccccc2)cc2ccccc21`, for which the GI50 was inactive: > 100 µM.

Turning to `CCOC(=O)c1ccc(-c2cccs2)n1C`, the GI50 is inactive: > 100 µM.

As for `CCOP(=O)(/C=C\n1ccc(=O)[nH]c1=O)OCC`, the GI50 is inactive: > 100 µM.

With `O=C(/C=C/c1ccc(OCC(=O)N2CCN(c3ccccc3)CC2)cc1)c1ccccc1`, the GI50 was inactive: 39 µM.

As for `COc1ccc(CC2NC(=O)/C=C/CC(C(C)C3OC3c3ccccc3)OC(=O)C(CC(C)C)OC(=O)C(C)CNC2=O)cc1Cl` (stereo not drawn), the GI50 was active: 3.78e-05 µM.

With `CCN(CC)c1c(-c2c(N(CC)CC)c(OC(C)=O)c3sccn3c2=O)c(=O)n2ccsc2c1OC(C)=O`, the GI50 is inactive: > 100 µM.

As for `Cc1cc(=O)oc2cc3oc(N(C)c4ccccc4)nc(=O)c3cc12`, the GI50 is inactive: > 100 µM.

For `O=C1c2ccccc2C(=O)c2c1ccc1nc3c(nc21)-c1c2ccccc2cc2cccc-3c12`, the GI50 is inactive: > 86.7 µM.

For the molecule `CC(C)(O)CO/N=C1\C(=C2\C(=O)Nc3ccccc32)Nc2ccccc21`, the GI50 is inactive: 1.42 µM.

On to `O=C(c1ccc(Cl)cc1)c1ccc(OCCCOc2ccc(C(=O)c3ccc(Cl)cc3)cc2Cl)c(Cl)c1`, for which the GI50 was inactive: > 100 µM.

Take `Nc1c(Cl)ncnc1N[C@@H]1C[C@H]1CO`: the GI50 was inactive: > 100 µM.

Turning to `O=C1OC(/C=C/c2ccccc2)C(=O)C1=O` (stereo not drawn), the GI50 is inactive: > 100 µM.

Regarding `N#Cc1ccc(Nc2nc3[nH]cnc3c(=O)[nH]2)cc1`, the GI50 was inactive: > 100 µM.

`CCN1C(=O)c2ccccc2C1(O)c1ccc(Cl)cc1` (stereo not drawn): the GI50 was inactive: 34.4 µM.

On to `Clc1cccc(-c2nc3cccc4c3n2Cc2ncccc2-4)c1`, for which the GI50 is inactive: > 100 µM.

Turning to `COc1ccc(/C=C(\C2=NC(=O)CS2)c2nc3ccccc3[nH]2)cc1`, the GI50 was inactive: 45.2 µM.

For the molecule `C/C(=N/NC(=S)N(Cc1ccccn1)Cc1ccccn1)c1cnccn1`, the GI50 was active: 0.258 µM.

For the molecule `N#CC1=C(Cl)NC(Cl)=C(C#N)C1c1c(Cl)cccc1Cl`, the GI50 is inactive: > 100 µM.

`COc1ccc2cc(/C=N/NC(=O)Nc3ccccc3)ccc2c1`: the GI50 is inactive: > 100 µM.

Regarding `N#Cc1ccc(Oc2nc3ccc(C(F)(F)F)cc3nc2-c2ccccc2)cc1`, the GI50 was inactive: 17.6 µM.

For the molecule `N=C(c1cccs1)C1(N2CCCCC2)CCCCC1`, the GI50 is inactive: 23.8 µM.

Consider `Cc1cc(O)nc(NNC(C#N)c2ccco2)n1` (stereo not drawn), for which the GI50 was inactive: > 100 µM.

Turning to `Cc1ccc(/N=N/C(=NNC(=O)c2ccc(C)cc2)c2ccc(N(C)C)cc2)cc1`, the GI50 was inactive: 29.9 µM.

Take `CCN(CC)c1nc(N(C)C)c2cc(OC)ccc2n1`: the GI50 is inactive: 24.8 µM.

Take `CCCn1c(SCCSc2c3ccccc3c(-c3nc(F)nc(F)n3)n2CCC)c2ccccc2c1-c1nc(F)nc(F)n1`: the GI50 was inactive: > 100 µM.

As for `CC(=O)O[C@H]1CCC2[C@@H]3CCC4c5nonc5CC[C@]4(C)C3CC[C@@]21C` (stereo partly drawn), the GI50 was inactive: > 10 µM.

For the molecule `CC1=NC2(C(=O)O)C3(C(=O)O)N=C(C)OC3(C(F)(F)F)C2(C(F)(F)F)O1` (stereo not drawn), the GI50 is inactive: > 100 µM.

`Nc1ccc(/N=N/c2ccc(-c3ccc(/N=N/c4c(S(=O)(=O)O)cc5cc(S(=O)(=O)O)c(/N=N/c6ccc([N+](=O)[O-])cc6)c(N)c5c4O)cc3)cc2)c2cc(S(=O)(=O)O)ccc12`: the GI50 is inactive: > 100 µM.

Turning to `COC1=CC(=O)c2c(O)c3c(c(O)c2C1=O)C[C@](C)(O)C[C@@H]3O`, the GI50 is inactive: 2.9 µM.

As to `C[C@@H]1[C@@H]2[C@@H](C=C3C4CCC5Cc6nc7c(nc6C[C@@]5(C)C4C[C@H](O)[C@]32CO)CC2CCC3C4=C[C@H]5O[C@@]6(OC(C)(CO)C[C@@H]6O)[C@H](C)[C@@]5(O)[C@]4(C)[C@@H](O)CC3[C@]2(C)C7)O[C@]12CCC(C)(C)O2` (stereo partly drawn), the GI50 was active: 0.608 µM.

On to `CSc1ccc2c(cc1=O)C(NC(=O)c1cc(O)c(OC(=O)O)c(O)c1)CCc1cc(O)c(O)c(O)c1-2` (stereo not drawn), for which the GI50 is inactive: > 8.99 µM.

As for `COc1ccc(-c2cc(=O)c3cc(O)ccc3o2)c(OC)c1OC`, the GI50 was inactive: 48.3 µM.

Regarding `CN(C)CCNc1ccc2nnn3c4ccc(Cl)cc4c(=O)c1c23`, the GI50 was inactive: 3.1 µM.

On to `CC1(C)CC2=NC(SSC3=C(C#N)C(c4ccc(Br)cc4)C4=C(O)CC(C)(C)CC4=N3)=C(C#N)C(c3ccc(Br)cc3)C2=C(O)C1` (stereo not drawn), for which the GI50 is inactive: > 100 µM.

As to `Cc1cc(N)c2ccccc2[n+]1CCCCCCCCCCNc1cc(C)[n+](CCCCCCCCCC[n+]2c(C)cc(N)c3ccccc32)c2ccccc12`, the GI50 was inactive: 1.98 µM.

With `CC(=O)O[C@H]1C(N(C)C(=O)c2ccccc2)CC[C@]2(C)C3CC[C@@]4(C)C(CC(O)[C@@H]4C(C)N(C)C)[C@@H]3CCC12` (stereo partly drawn), the GI50 is inactive: > 100 µM.

Take `O=C(O)CCC(C(=O)O)N1C(=O)c2ccccc2C1=O` (stereo not drawn): the GI50 is inactive: > 100 µM.
